In PubChem BioAssay AID1794842 (National Center for Advancing Translational Sciences (NCATS), 2023):
The whole screen tested about 2,800 compounds, of which fewer than 10 were called active. The call rests on the fitted dose curve; in most records, active means well fitted curve in the direction sought with a large enough effect; inconclusive means small, poorly fitted or top-dose-only effect, or another doubt; inactive means no such curve, though single readings can be large or run the other way. The list shows a part of the results.

These compounds were tested against Metallo-beta-lactamase type 2 (Klebsiella pneumoniae) (UniProt C7C422) (assay: qHTS to identify inhibitors of the New Delhi Metallo-beta-lactamase (NDM): Meropenem screen against the machine-based learning selections.). Settings: Purified NDM-1, meropenem hydrolysis, absorbance 300 nm; at 38.4 µM (top of the series) unless noted.
Summary of the method: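 NDM-1 (2 nM final) in 50 mM HEPES pH 7.0, 1 uM Zn2SO4, 0.01% Tween20 was preincubated with compounds for >30 min. Nitrocefin (16.7 uM final) was read at 485 nm after 15 min, and meropenem (50 uM final) at 300 nm after 30 min.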
Further: % of control where 0% means no effect.

Chain of UniProt C7C422 (C7C422 whole entry, looked up): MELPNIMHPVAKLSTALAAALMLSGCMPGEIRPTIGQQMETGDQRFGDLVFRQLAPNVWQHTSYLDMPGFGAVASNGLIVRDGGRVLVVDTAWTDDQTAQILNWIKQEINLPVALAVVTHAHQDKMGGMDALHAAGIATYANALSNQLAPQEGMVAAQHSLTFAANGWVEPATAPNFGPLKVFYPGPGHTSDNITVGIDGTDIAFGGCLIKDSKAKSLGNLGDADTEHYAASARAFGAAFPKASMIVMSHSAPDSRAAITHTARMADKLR

| SMILES | activity change, negative = inhibition |
| --- | --- |
| COc1ccc(-c2ccc3ncc(Nc4ccc(C(N)=O)cc4)n3n2)cn1 | inactive: 52% [at 57.5 µM] |
| O=C(N[C@H]1CCN2C(=O)c3ccc(Cl)cc3NC(=O)[C@H]12)c1cccs1 | inactive: 2.84% [at 57.5 µM] |
| CCN1C(=O)Cc2cc(C(=O)NCc3cc(OC)ccc3OC)ccc21 | inactive: 0.875% |
| C[S+](=O)([O-])c1cccc(Nc2n[nH]c(C(O)c3ccccc3)n2)c1 (stereo unspecified) | inactive: -0.744% [at 57.5 µM] |
| CC(=O)N1CCC(N[C@@H]2CO[C@H](CNC(=O)c3ccccc3)[C@H]2O)CC1 | inactive: 0.524% [at 57.5 µM] |
| COc1ccc(CN2CCC[C@H]2c2nc(-c3ccc(N(C)C)nc3)no2)c(O)c1 | inactive: 15.4% [at 57.5 µM] |
| Oc1cccc(-c2cc(-c3ccncc3)c3cncn3c2)c1 | inactive: 41.6% [at 76.7 µM] |
| COc1ccc2c(c1)nc1n2[C@@H](CNC(=O)c2ccncc2)COC1 | inactive: 4.11% [at 57.5 µM] |
| CC(C)(O)CCc1ccc(C(=O)N2CCC(c3cccc(O)c3)CC2)cc1 | inactive: 1.4% |
| COC1CCN(CC2CCCCCN2C(=O)CCCc2ccccc2)CC1 (stereo unspecified) | inactive: -0.353% |
| Cc1cc(C(=O)N2C[C@@H](COc3ccccc3)[C@H](C(N)=O)C2)no1 | inactive: -3.99% |
| CC(=O)N1CCC(NC[C@H]2COCc3nc4cc(C)ccc4n32)CC1 | inactive: -0.677% [at 57.5 µM] |
| c1ccc(CNc2ncc(CN3CCC4(CCNCC4)CC3)cn2)cc1 | inactive: 0.519% |
| CNc1ccc(OC2CCN(C(=O)CCc3nc4ccccc4[nH]3)C2)nc1 (stereo unspecified) | inactive: 2.49% |
| Cn1cccc1C(=O)N1CC[C@H](NC(=O)NC2CCCCC2)[C@H]1C(=O)N1CCC[C@@H]1C(N)=O | inactive: 1.12% |
| CNC(=O)[C@@H](c1ccccc1F)N1CCC[C@H]1C(=O)NCC(C)C | inactive: 68% [at 57.5 µM] |
| COc1ncccc1CNC[C@H]1O[C@@H]2C[C@@H](CC(=O)N3CCOCC3)O[C@@H]2[C@@H]1O | inactive: -0.298% [at 57.5 µM] |
| c1ccc(Nc2cc3c(cn2)CN(Cc2cnc[nH]2)CCN3)cc1 | inactive: 11.8% [at 57.5 µM] |
| COc1ccc(C(=O)N2CC[C@@H](CC(=O)O)[C@@H](CCN3CCC[C@H]3C(N)=O)C2)cc1 | inactive: 52.7% [at 57.5 µM] |
| O=C(COc1ccccc1)Nc1ccc([C@@H](O)[C@H]2COCC(=O)N2Cc2ccccc2F)cc1 | inactive: -1.9% |
| O=C(NC[C@H]1O[C@@H]2C[C@@H](CC(=O)N3CCC(F)(F)C3)O[C@@H]2[C@@H]1O)NC1CCC1 | inactive: 1.2% [at 57.5 µM] |
| COc1ccccc1C(O)c1nc(Nc2ccncc2)n[nH]1 (stereo unspecified) | inactive: 13.5% [at 57.5 µM] |
| CCOc1ccccc1NC(=O)N1C[C@H](Oc2ccccc2)C[C@@H]1C(=O)NCCOC | inactive: 0.201% |
| CN[C@@H](CO)C(=O)NCc1nc(-c2cccc(F)c2)c(-c2ccccn2)[nH]1 | inactive: 29% |
| O=C(Cc1ccc(N(Cc2ccc(F)cc2)C(=O)c2ccco2)cc1)NCc1ccc(F)cc1 | inactive: 3.53% |
| COC(=O)C(=O)N1CC[C@@H]2[C@H]1C(=O)N(C(C)C)C(=O)N2Cc1cccc(F)c1 | inactive: -0.0056% [at 57.5 µM] |

| SMILES | activity change, negative = inhibition |
| --- | --- |
| CN1C[C@@H](NS(C)(=O)=O)C[C@H]1c1nc(-c2ccc(Cl)cc2)no1 | inactive: 0.207% [at 57.5 µM] |
| COc1ccc(-c2nnc3n2CCN(C(=O)C(C)(C)C)C3)cc1 | inactive: 0.397% [at 57.5 µM] |
| CC1CCN(C(=O)c2ccccc2OCC2CCCN(C(=O)c3ccncc3)C2)CC1 (stereo unspecified) | inactive: 1.25% |
| O=c1cc(-c2ccccn2)oc2c(Nc3ccccc3)nccc12 | inactive: 21.6% [at 57.5 µM] |
| Cc1cc(C)c(CNC(=O)c2nc(Nc3ccccc3)cc3[nH]ccc23)c(=O)[nH]1 | inactive: 15.4% [at 57.5 µM] |
| O=C(COc1ccccc1)N[C@H]1CO[C@H]2[C@@H]1OC[C@H]2OC(=O)Nc1ccccc1 | inactive: -1.82% [at 57.5 µM] |
| O=C1NCCC[C@@H]1NC(=O)[C@H]1CN(C(=O)c2cccc(F)c2)CCN1S(=O)(=O)c1ccc(F)cc1 | inactive: -0.325% |
| CC(C)C[C@@H]1N[C@H](C(=O)NCc2ccc(C(F)(F)F)cc2)Cc2c[nH]c3cccc1c23 | inactive: 0.524% [at 57.5 µM] |
| CC1=C[C@@H](CNC(=O)C2CC2)[C@H](C(C)C)C[C@H]1CC(=O)N1CCOCC1 | inactive: -0.933% [at 57.5 µM] |
| COC(=O)[C@@H]1Cc2ncn(Cc3ccc(OC)cc3)c2CN1C(=O)c1ccc(C#N)cc1 | inactive: 0.586% [at 57.5 µM] |
| CC1CCN([C@@H]2[C@H](O)[C@H](CO)O[C@@H]2CNC(=O)c2ccccc2)CC1 | inactive: 18.5% [at 57.5 µM] |
| CC(C)(C)CC(=O)Nc1ccc([C@@H](O)[C@H]2COCC(=O)N2Cc2ccccc2F)cc1 | inactive: 0.758% [at 57.5 µM] |
| O=C(NCc1csc(-c2cnccn2)n1)C(c1cccnc1)N1CCOCC1 (stereo unspecified) | inactive: 4.82% |
| O=C(c1ccc(Oc2ccccc2)cc1)N1CCNc2cnc(Nc3cccc(C(F)(F)F)c3)nc2C1 | inactive: 1.44% |
| COCCNC(=O)[C@H]1C[C@H](Oc2ccccc2)CN1C(=O)Cc1cccc(C)c1 | inactive: 0.106% |
| CS(=O)(=O)Nc1cc(-c2noc([C@@H]3CCCN3Cc3ccccc3)n2)ccn1 | inactive: 0.719% [at 57.5 µM] |
| O=C(c1ccc(NCc2ccncc2)cc1)N1CCCC2(CCNCC2)CC1 | inactive: 58% |
| NC(=O)c1cccc(-c2n[nH]c3c2CC(=O)N(CCOc2ccccc2)C3)c1 | inactive: -3% [at 57.5 µM] |
| O=C(Cc1c[nH]c2ncc(-c3ccccc3Oc3ccccc3)cc12)NCc1cccnc1 | inactive: 8.58% [at 57.5 µM] |
| CCCS(=O)(=O)N1CCC(Oc2nccnc2N2CCOCC2)C1 (stereo unspecified) | inactive: 5.44% |
| Cn1c(CN2CCOCC2)nnc1C1CCCN(S(=O)(=O)C2CC2)C1 (stereo unspecified) | inactive: 1.93% |
| Cc1noc2c(Nc3ccc(C(N)=O)cc3)cc(-c3cccnc3)nc12 | inactive: 5.05% [at 57.5 µM] |
| COc1ccccc1C(=O)NC1CCN(c2ccc(C)cc2)C1=O (stereo unspecified) | inactive: 2.2% |
| COc1ccc(CC(=O)N2CC(CO)C3(CCNCC3)C2)cc1 (stereo unspecified) | inactive: 0.646% |
| CC(C)c1cccc(NC(=O)c2ccc3c(c2)N(C)C2CCCCN2C3=O)c1 (stereo unspecified) | inactive: 0.56% |
| O=C(CN1C(=O)CNC1=O)NCCc1noc(-c2ccccc2)n1 | inactive: -3.49% |

| SMILES | activity change, negative = inhibition |
| --- | --- |
| Cc1ccc(-c2cnc([C@@H]3COCCN3Cc3ccccc3F)[nH]2)cc1 | inactive: 1.25% [at 57.5 µM] |
| C[S+](=O)([O-])CCn1ncc2cc(OCc3cccc(-c4ccccc4O)c3)ccc21 | inactive: 3.5% [at 57.5 µM] |
| Cc1cc(C(=O)N[C@H](C)c2onc(C)c2C(=O)O)c(C)o1 | inactive: 18.3% [at 57.5 µM] |
| COc1ccc(CN2CC[C@@H]3[C@H]2C(=O)NC[C@H](CCC(=O)NCc2ccc(F)cc2)N3C)cc1 | inactive: 0.433% |
| CCn1nc(C)cc1C(=O)N1CCOC[C@H](Oc2cccnc2)C1 | inactive: -2.79% [at 57.5 µM] |
| CC(C)CCN1CCNC(=O)C1CC(=O)N(Cc1nccs1)C1CC1 (stereo unspecified) | inactive: 5.54% |
| Cc1cc2c(cc1C(=O)N[C@H](c1ccccn1)C1CC(O)C1)OCCO2 (stereo partly specified) | inactive: 2.04% |
| O=C1N[C@H](CCC(=O)N2CCN(Cc3ccccc3)CC2)C(=O)Nc2ccccc21 | inactive: -2.17% |
| O=[N+]([O-])c1ccccc1CN1C[C@H](O)C[C@H]1c1nc(-c2ccncc2)no1 | inactive: 3.82% [at 57.5 µM] |
| O=C(NCCc1nccc(-c2ccccc2)n1)[C@H]1CCC[C@H](O)C1 | inactive: -0.234% |
| CC1(C(=O)NCc2cnccn2)CCCc2cnc(NCc3ccccc3)nc21 (stereo unspecified) | inactive: -0.945% [at 57.5 µM] |
| c1ccc(Nc2ncc(-c3ccccc3)c3c2OCC3)cc1 | inactive: 2.64% [at 76.7 µM] |
| CNC(=O)[C@@H]1CN(C(=O)c2cc3cc(OC)ccc3[nH]2)C[C@H]1CO | inactive: 14.1% |
| Cc1noc(C)c1CNCC1(COc2cnccn2)C[C@@H](O)[C@@H](O)C1 (stereo partly specified) | inactive: 49.8% [at 57.5 µM] |
| COc1ccc(CN2C(=O)CO[C@H]3CN(C4CCOCC4)C[C@H]32)cc1 | inactive: 0.907% [at 57.5 µM] |
| CC(C)(O)CCc1cccc(C(=O)N(Cc2ccc3c(c2)OCO3)C2CC2)c1 | inactive: 0.484% |
| CSCCCN1C[C@@H](C(=O)O)C[C@H](C(=O)NCc2ccccn2)C1 | inactive: 44.8% |
| CN1C[C@H](C(=O)NCc2ccncc2)C[C@H]1c1cccc(C(F)(F)F)c1 | inactive: 0.704% [at 57.5 µM] |
| Cc1ccncc1C(=O)N1CCC2(CC1)CC(c1ccccc1)C(=O)N2C (stereo unspecified) | inactive: -0.502% |
| O=C(NC1CCC(O)CC1)C1CCCN(c2nc(-c3ccccc3)nc3c2CCC3)C1 (stereo unspecified) | inactive: 5.81% |
| O=C(Cc1c[nH]c2ncc(-c3cccnc3)cc12)NC1CCOCC1 | inactive: 16.6% [at 57.5 µM] |
| Cc1nc(-c2c3n(c(=O)n(Cc4cccc(Cl)c4)c2=O)CCCCC3)no1 | inactive: -1.13% |
| CCOc1cc(C(=O)N2CCN(c3cc(-c4ccc(Cl)cc4)[nH]n3)CC2)cc(OCC)c1OCC | inactive: 0.171% |
| CCCNC(=O)N1CC(c2noc(C3CCCN3CC3CC3)n2)C1 (stereo unspecified) | inactive: -0.243% |
